{
  "source": "ChEMBL document CHEMBL1961873",
  "about": "“Compounds: GSK PKIS; Assays: Nanosyn kinase panel” (2012)",
  "note": "For some assays here: What follows is the remainder of the data, with few or none of the strong results. Only a part is listed here, and it is no random draw.",
  "data": [
    {"target": "Proto-oncogene tyrosine-protein kinase Src (Homo sapiens) (UniProt P12931)", "sequence (P12931 whole entry, looked up)": "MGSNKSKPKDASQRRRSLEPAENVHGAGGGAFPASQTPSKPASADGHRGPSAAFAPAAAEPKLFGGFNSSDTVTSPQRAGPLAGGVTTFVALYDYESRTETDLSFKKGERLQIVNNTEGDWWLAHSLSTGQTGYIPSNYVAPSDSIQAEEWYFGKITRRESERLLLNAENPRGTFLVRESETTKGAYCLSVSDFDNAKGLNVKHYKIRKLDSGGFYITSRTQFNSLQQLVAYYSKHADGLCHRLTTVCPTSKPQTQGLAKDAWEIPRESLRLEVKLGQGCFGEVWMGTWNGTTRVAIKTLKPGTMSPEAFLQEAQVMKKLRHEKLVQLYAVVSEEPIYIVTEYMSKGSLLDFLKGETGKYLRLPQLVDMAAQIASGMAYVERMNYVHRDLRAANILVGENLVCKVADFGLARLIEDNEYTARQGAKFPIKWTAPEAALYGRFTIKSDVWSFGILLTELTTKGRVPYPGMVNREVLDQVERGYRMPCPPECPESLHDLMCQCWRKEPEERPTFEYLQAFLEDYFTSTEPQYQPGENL", "settings": "at 1 µM", "units": {"inhibition": "%"}, "values": [
      {"smiles": "Cc1cccc(Oc2nccc(-c3c(-c4ccc(F)cc4)ncn3C3CCNCC3)n2)c1C", "inhibition": 6.58},
      {"smiles": "Fc1ccc(-c2ncn(C3CCNCC3)c2-c2ccnc(Oc3cccc(F)c3)n2)cc1", "inhibition": 17.8},
      {"smiles": "O=C(O)c1ccc(Oc2nccc(-c3c(-c4ccc(F)cc4)ncn3C3CCNCC3)n2)cc1", "inhibition": 12.2},
      {"smiles": "Fc1ccc(-c2ncn(C3CCNCC3)c2-c2ccnc(Oc3cccc(C(F)(F)F)c3)n2)cc1", "inhibition": 7.46},
      {"smiles": "CC(C)(C)c1ccc(Oc2nccc(-c3c(-c4ccc(F)cc4)ncn3C3CCNCC3)n2)cc1", "inhibition": 3.88},
      {"smiles": "COc1ccccc1Oc1nccc(-c2c(-c3ccc(F)cc3)ncn2C2CCNCC2)n1", "inhibition": 7.72},
      {"smiles": "O=C1NC(=O)C(c2cccc([N+](=O)[O-])c2)=C1Nc1cc(Cl)c(O)c(Cl)c1", "inhibition": -0.12},
      {"smiles": "Fc1ccc(Oc2nccc(-c3c(-c4ccc(F)cc4)ncn3C3CCNCC3)n2)cc1", "inhibition": 15.7},
      {"smiles": "O=C1NC(=O)C(c2ccccc2)=C1Nc1ccccc1", "inhibition": 13.1},
      {"smiles": "COc1ccccc1C1=C(Nc2ccccc2)C(=O)NC1=O", "inhibition": 27.4},
      {"smiles": "Fc1ccc(-c2ncn(C3CCNCC3)c2-c2ccnc(Oc3ccc(Cl)cc3)n2)cc1", "inhibition": 2.18},
      {"smiles": "CS(=O)(=O)c1ccc(Oc2nccc(-c3c(-c4ccc(F)cc4)ncn3C3CCNCC3)n2)cc1", "inhibition": 1.59},
      {"smiles": "O=C1NC(=O)C(c2ccccc2Cl)=C1Nc1cc(Cl)c(O)c(Cl)c1", "inhibition": 8.47},
      {"smiles": "NC(=O)CCc1ccccc1Oc1nccc(-c2c(-c3ccc(F)cc3)ncn2C2CCNCC2)n1", "inhibition": -3.03}
    ]},
    {"target": "Tyrosine-protein kinase Srms (Homo sapiens) (UniProt Q9H3Y6)", "sequence (Q9H3Y6 whole entry)": "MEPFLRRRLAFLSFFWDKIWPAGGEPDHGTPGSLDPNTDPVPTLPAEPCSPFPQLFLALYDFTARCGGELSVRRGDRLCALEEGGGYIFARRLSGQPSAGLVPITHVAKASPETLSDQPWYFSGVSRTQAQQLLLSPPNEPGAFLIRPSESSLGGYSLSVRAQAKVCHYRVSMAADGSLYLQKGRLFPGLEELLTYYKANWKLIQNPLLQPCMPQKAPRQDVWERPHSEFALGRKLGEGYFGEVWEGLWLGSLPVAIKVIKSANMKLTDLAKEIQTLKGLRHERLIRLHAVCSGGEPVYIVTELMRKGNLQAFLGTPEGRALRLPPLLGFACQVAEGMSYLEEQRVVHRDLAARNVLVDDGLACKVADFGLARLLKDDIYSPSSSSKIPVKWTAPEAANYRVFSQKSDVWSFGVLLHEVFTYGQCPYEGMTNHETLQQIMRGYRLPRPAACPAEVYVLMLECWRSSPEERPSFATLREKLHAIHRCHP", "settings": "at 0.1 µM", "units": {"inhibition": "%"}, "values": [
      {"smiles": "Cc1cccc(Oc2nccc(-c3c(-c4ccc(F)cc4)ncn3C3CCNCC3)n2)c1C", "inhibition": -3.49},
      {"smiles": "Fc1ccc(-c2ncn(C3CCNCC3)c2-c2ccnc(Oc3cccc(F)c3)n2)cc1", "inhibition": -0.73},
      {"smiles": "O=C(O)c1ccc(Oc2nccc(-c3c(-c4ccc(F)cc4)ncn3C3CCNCC3)n2)cc1", "inhibition": -1.8},
      {"smiles": "Fc1ccc(-c2ncn(C3CCNCC3)c2-c2ccnc(Oc3cccc(C(F)(F)F)c3)n2)cc1", "inhibition": -0.82},
      {"smiles": "CC(C)(C)c1ccc(Oc2nccc(-c3c(-c4ccc(F)cc4)ncn3C3CCNCC3)n2)cc1", "inhibition": -1.17},
      {"smiles": "COc1ccccc1Oc1nccc(-c2c(-c3ccc(F)cc3)ncn2C2CCNCC2)n1", "inhibition": -2.6},
      {"smiles": "O=C1NC(=O)C(c2cccc([N+](=O)[O-])c2)=C1Nc1cc(Cl)c(O)c(Cl)c1", "inhibition": 1.05},
      {"smiles": "Fc1ccc(Oc2nccc(-c3c(-c4ccc(F)cc4)ncn3C3CCNCC3)n2)cc1", "inhibition": -2.23},
      {"smiles": "O=C1NC(=O)C(c2ccccc2)=C1Nc1ccccc1", "inhibition": -0.23},
      {"smiles": "COc1ccccc1C1=C(Nc2ccccc2)C(=O)NC1=O", "inhibition": 0.69},
      {"smiles": "Fc1ccc(-c2ncn(C3CCNCC3)c2-c2ccnc(Oc3ccc(Cl)cc3)n2)cc1", "inhibition": 0.88},
      {"smiles": "CS(=O)(=O)c1ccc(Oc2nccc(-c3c(-c4ccc(F)cc4)ncn3C3CCNCC3)n2)cc1", "inhibition": -2.54},
      {"smiles": "O=C1NC(=O)C(c2ccccc2Cl)=C1Nc1cc(Cl)c(O)c(Cl)c1", "inhibition": -9.89},
      {"smiles": "NC(=O)CCc1ccccc1Oc1nccc(-c2c(-c3ccc(F)cc3)ncn2C2CCNCC2)n1", "inhibition": -2.26}
    ]},
    {"target": "Tyrosine-protein kinase Srms (Homo sapiens) (UniProt Q9H3Y6)", "settings": "at 1 µM", "units": {"inhibition": "%"}, "values": [
      {"smiles": "Cc1cccc(Oc2nccc(-c3c(-c4ccc(F)cc4)ncn3C3CCNCC3)n2)c1C", "inhibition": -3.09},
      {"smiles": "Fc1ccc(-c2ncn(C3CCNCC3)c2-c2ccnc(Oc3cccc(F)c3)n2)cc1", "inhibition": -2.24},
      {"smiles": "O=C(O)c1ccc(Oc2nccc(-c3c(-c4ccc(F)cc4)ncn3C3CCNCC3)n2)cc1", "inhibition": -4.6},
      {"smiles": "Fc1ccc(-c2ncn(C3CCNCC3)c2-c2ccnc(Oc3cccc(C(F)(F)F)c3)n2)cc1", "inhibition": 0.72},
      {"smiles": "CC(C)(C)c1ccc(Oc2nccc(-c3c(-c4ccc(F)cc4)ncn3C3CCNCC3)n2)cc1", "inhibition": -2.42},
      {"smiles": "COc1ccccc1Oc1nccc(-c2c(-c3ccc(F)cc3)ncn2C2CCNCC2)n1", "inhibition": -2.9},
      {"smiles": "O=C1NC(=O)C(c2cccc([N+](=O)[O-])c2)=C1Nc1cc(Cl)c(O)c(Cl)c1", "inhibition": 0.6},
      {"smiles": "Fc1ccc(Oc2nccc(-c3c(-c4ccc(F)cc4)ncn3C3CCNCC3)n2)cc1", "inhibition": -2.77},
      {"smiles": "O=C1NC(=O)C(c2ccccc2)=C1Nc1ccccc1", "inhibition": 6.26},
      {"smiles": "COc1ccccc1C1=C(Nc2ccccc2)C(=O)NC1=O", "inhibition": 4.8},
      {"smiles": "Fc1ccc(-c2ncn(C3CCNCC3)c2-c2ccnc(Oc3ccc(Cl)cc3)n2)cc1", "inhibition": -2.37},
      {"smiles": "CS(=O)(=O)c1ccc(Oc2nccc(-c3c(-c4ccc(F)cc4)ncn3C3CCNCC3)n2)cc1", "inhibition": -3.09},
      {"smiles": "O=C1NC(=O)C(c2ccccc2Cl)=C1Nc1cc(Cl)c(O)c(Cl)c1", "inhibition": -0.11},
      {"smiles": "NC(=O)CCc1ccccc1Oc1nccc(-c2c(-c3ccc(F)cc3)ncn2C2CCNCC2)n1", "inhibition": -3.62}
    ]},
    {"target": "Tyrosine-protein kinase SYK (Homo sapiens) (UniProt P43405)", "settings": "at 0.1 µM", "units": {"inhibition": "%"}, "values": [
      {"smiles": "Cc1cccc(Oc2nccc(-c3c(-c4ccc(F)cc4)ncn3C3CCNCC3)n2)c1C", "inhibition": -1.99},
      {"smiles": "Fc1ccc(-c2ncn(C3CCNCC3)c2-c2ccnc(Oc3cccc(F)c3)n2)cc1", "inhibition": 1.94},
      {"smiles": "O=C(O)c1ccc(Oc2nccc(-c3c(-c4ccc(F)cc4)ncn3C3CCNCC3)n2)cc1", "inhibition": -0.23},
      {"smiles": "Fc1ccc(-c2ncn(C3CCNCC3)c2-c2ccnc(Oc3cccc(C(F)(F)F)c3)n2)cc1", "inhibition": -0.53},
      {"smiles": "CC(C)(C)c1ccc(Oc2nccc(-c3c(-c4ccc(F)cc4)ncn3C3CCNCC3)n2)cc1", "inhibition": 1.52},
      {"smiles": "COc1ccccc1Oc1nccc(-c2c(-c3ccc(F)cc3)ncn2C2CCNCC2)n1", "inhibition": -0.24},
      {"smiles": "O=C1NC(=O)C(c2cccc([N+](=O)[O-])c2)=C1Nc1cc(Cl)c(O)c(Cl)c1", "inhibition": 1.08},
      {"smiles": "Fc1ccc(Oc2nccc(-c3c(-c4ccc(F)cc4)ncn3C3CCNCC3)n2)cc1", "inhibition": -1.36},
      {"smiles": "O=C1NC(=O)C(c2ccccc2)=C1Nc1ccccc1", "inhibition": 0.88},
      {"smiles": "COc1ccccc1C1=C(Nc2ccccc2)C(=O)NC1=O", "inhibition": 2.4},
      {"smiles": "Fc1ccc(-c2ncn(C3CCNCC3)c2-c2ccnc(Oc3ccc(Cl)cc3)n2)cc1", "inhibition": 1.97},
      {"smiles": "CS(=O)(=O)c1ccc(Oc2nccc(-c3c(-c4ccc(F)cc4)ncn3C3CCNCC3)n2)cc1", "inhibition": -1.52},
      {"smiles": "O=C1NC(=O)C(c2ccccc2Cl)=C1Nc1cc(Cl)c(O)c(Cl)c1", "inhibition": -1.87},
      {"smiles": "NC(=O)CCc1ccccc1Oc1nccc(-c2c(-c3ccc(F)cc3)ncn2C2CCNCC2)n1", "inhibition": 0.1}
    ]}
  ]
}
